Source: PubChem BioAssay AID488969 (Vanderbilt High Throughput Screening Facility, 2010)
In all, about 110,000 compounds were measured (“z-score”: median about -0.1, highest 2% from about 2 on). Some of the results follow. Active and inactive are the calls of the source.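 How the source made its calls: active means z-score in the third read window above 3 or below -3; inactive means the rest.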

target: Metabotropic glutamate receptor 8 (Rattus norvegicus) (UniProt P70579); assay: mGluR8 Gi/Go-coupled signaling modulation – cell-based, rat, thallium flux, HTS, primary screen (AID 488969); conditions: HEK293 rat mGluR8, GIRK (G protein-gated inwardly rectifying potassium channel) thallium flux, FluoZin2; at 10 µM; stronger effect = higher value; submaximal glutamate (EC20) added with thallium
Sequence of UniProt P70579 (P70579 whole entry, looked up): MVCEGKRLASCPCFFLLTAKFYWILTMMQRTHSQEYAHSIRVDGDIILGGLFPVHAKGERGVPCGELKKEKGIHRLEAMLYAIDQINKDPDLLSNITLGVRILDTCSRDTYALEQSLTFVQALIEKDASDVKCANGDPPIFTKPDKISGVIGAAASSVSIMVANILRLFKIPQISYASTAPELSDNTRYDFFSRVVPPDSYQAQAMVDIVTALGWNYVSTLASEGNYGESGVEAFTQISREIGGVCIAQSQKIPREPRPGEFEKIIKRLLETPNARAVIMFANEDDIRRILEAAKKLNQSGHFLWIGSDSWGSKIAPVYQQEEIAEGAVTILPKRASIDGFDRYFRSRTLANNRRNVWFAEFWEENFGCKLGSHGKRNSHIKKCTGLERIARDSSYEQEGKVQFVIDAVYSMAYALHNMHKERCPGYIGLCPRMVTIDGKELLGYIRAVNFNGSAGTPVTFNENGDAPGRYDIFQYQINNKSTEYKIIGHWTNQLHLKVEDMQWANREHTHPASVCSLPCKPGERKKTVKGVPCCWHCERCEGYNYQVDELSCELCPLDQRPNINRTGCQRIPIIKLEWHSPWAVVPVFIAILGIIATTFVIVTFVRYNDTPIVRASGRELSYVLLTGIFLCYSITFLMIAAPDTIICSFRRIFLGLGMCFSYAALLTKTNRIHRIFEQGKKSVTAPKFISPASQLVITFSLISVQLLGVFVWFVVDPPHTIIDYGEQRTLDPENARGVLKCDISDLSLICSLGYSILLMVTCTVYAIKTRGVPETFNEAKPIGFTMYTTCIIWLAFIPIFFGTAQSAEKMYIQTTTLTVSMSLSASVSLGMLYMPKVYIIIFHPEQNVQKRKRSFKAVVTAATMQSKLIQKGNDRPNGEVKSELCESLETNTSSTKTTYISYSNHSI

SMILES	z-score
O=C(Nc1cccc(Cl)c1)c1cccc(Oc2ccc([N+](=O)[O-])cc2Cl)c1	0.335
O=C(CSc1nnc(-c2cccnc2)n1Cc1ccco1)c1ccc2ccccc2c1	-1.51
Cc1ccc(C(=O)CSc2nc3ccccc3o2)cc1	0.274
O=C1NC(=S)N/C1=C/c1ccc(-c2c(Br)cc([N+](=O)[O-])cc2Br)o1	-0.358
CC(=O)c1cccc(NC(=O)N2CCc3ccccc3C2)c1	0.52
CC(C)C(=O)Nc1ccccc1C(=O)OCC(=O)c1ccc2c(c1)OCCO2	-0.424
COc1ccc(OCCCC(=O)NC(C)c2ccccc2)cc1 (stereo unspecified)	-0.342
CCOC(=O)N1CCN(C(=O)CS(=O)(=O)c2cn(Cc3ccccc3Cl)c3ccccc23)CC1	0.175
CCc1c(C)c2ccc(OCC(=O)N(C)C)c(C)c2oc1=O	0.0573
Cc1nn(CC(=O)Nc2cccc(S(N)(=O)=O)c2)c(C)c1[N+](=O)[O-]	-0.212
COc1ccc(CNC(=O)C2=C(C)C(=O)OC23CCC(C)CC3)cc1 (stereo unspecified)	-0.0555
O=c1c2ccccc2ncn1CCCSc1ccc(Cl)cc1	0.183
Cn1c(NCCO)nc2c(c1=O)C1(CCCCC1)Cc1ccccc1-2	-0.614
O=C(O)c1cnn2c(C(F)(F)F)cc(-c3ccccc3)nc12	0.0151
Cc1ccc(NC(=O)COC(=O)c2cc(C)nc3ccccc23)c([N+](=O)[O-])c1	-0.23
Cc1ccc(S(=O)(=O)N2CCCOC2CNC(=O)C(=O)NCc2ccncc2)cc1 (stereo unspecified)	0.0703
COc1ccc(N2C(=O)CC(NCc3ccncc3)C2=O)cc1 (stereo unspecified)	-0.241
CC(=O)Nc1ccc2c(c1)C(=O)c1ccccc1C2=O	-0.494
CCOC(=O)c1c(NC(=O)C2C3C=CC(CC3)C2C(=O)O)sc(C)c1C (stereo unspecified)	0.959
C=CCSc1nnc(-c2nnc(SCC=C)n2-c2ccccc2)n1-c1ccccc1	-0.178
Cc1ccnc(NC2OC(=O)c3ccccc32)c1 (stereo unspecified)	0.529
CCc1ccccc1NC(=O)CN(c1cccc(OC)c1)S(C)(=O)=O	-0.141
N#Cc1c(-c2ccc3c(c2)OCO3)csc1N	-0.142

SMILES	z-score
Cc1cccc(N2CCN(S(=O)(=O)c3cccc4nonc34)CC2)c1C	0.0258
Cc1ccc(-c2nnc(SCc3nc(N)nc(Nc4ccccc4C)n3)n2N)cc1	-0.195
COCCn1c(SCc2nc(N)nc(Nc3ccccc3C)n2)nc2ccccc2c1=O	-0.279
O=c1[nH]n(-c2ccccc2)c(=O)c(Cl)c1Cl	0.0804
COc1ccc(NC(=O)Cc2coc3cc(C)ccc23)cc1S(=O)(=O)N1CCOCC1	-0.439
COc1ccc(Cc2nn3c(-c4ccccc4Br)nnc3s2)cc1	-0.534
CCCn1nc(Oc2nc(NCC)nc(NC(C)C)n2)ccc1=O	-0.313
CCOc1ncccc1C(=O)N(C)CC1COc2ccccc2O1 (stereo unspecified)	-0.000907
COc1cc(/C=N/N(C)c2ccccc2)ccc1O	-1.29
CCC(CC)C(=O)NCCc1cc2ccc(OC)cc2[nH]c1=O	0.152
CCN(c1ccccc1)S(=O)(=O)c1ccc(OC)c(OC)c1	-0.127
COc1cccc(N2CCN(C3CCCC(C)C3)CC2)c1 (stereo unspecified)	-0.393
O=C(/C=C\c1ccc2c(c1)OCO2)Nc1nnc(SCC(=O)OCc2ccccc2)s1	-0.385
O=C(CSc1nnc(Cc2ccccc2)o1)NCc1ccco1	1.21
Clc1ccc(-c2noc(CN3CCN(c4ccccc4)CC3)n2)cc1	0.526
O=C(CCn1cccc1)NCCc1ccc(Cl)cc1	-0.743
Cc1cc(C)cc(OCc2nnc(SCC(=O)N3CCN(c4ccccc4)CC3)o2)c1	-0.592
Cc1cc(C)c(C(N)=O)c(Nc2ccc3c(c2)OCCO3)n1	-0.00183
CCOC(=O)C1=C(Cn2cnc3ccccc32)NC(=O)NC1c1cc(C)ccc1C (stereo unspecified)	0.667
CCCCCOC(=O)c1ccc(OC(=O)c2cncc(Br)c2)cc1	-0.0693
O=C(CNS(=O)(=O)c1ccccc1)Nc1ccc(C(F)(F)F)cc1	-0.247
COc1cc(NS(=O)(=O)c2ccc(NC(=O)/C(=C/c3ccccc3Cl)NC(=O)c3ccccc3)cc2)nc(OC)n1	-0.196
COc1ccc(C2Nc3ccccc3C(=O)N2c2ccc(F)cc2)cc1CSc1ccccn1 (stereo unspecified)	-0.342

SMILES	z-score
CCOC(=O)C(C)c1ccc2cc(OC)ccc2c1 (stereo unspecified)	-0.0102
CN1CC(=O)N(CC(=O)Nc2ccc(Cl)c(C(F)(F)F)c2)C1=O	-0.0297
c1ccc(-c2nc(NCC3CCCO3)c3oc4ccccc4c3n2)cc1 (stereo unspecified)	-0.637
CCOc1ccc2nc(SCc3ccccc3C#N)sc2c1	-0.141
Cc1ccc(SCc2ccc(C(=O)Nc3cccc([N+](=O)[O-])c3C)cc2)cc1	-0.0842
CCn1c(COc2ccc(OC)cc2)nnc1SCC(=O)Nc1cc(OC)ccc1OC	-1.08
COC(=O)CSC1=C(C#N)C(c2ccc(C(C)C)cc2)CC(=O)N1 (stereo unspecified)	-0.111
CCOC(=O)CC(=O)CSc1nnc2sc3ccccc3n12	0.25
CCOC(=O)c1cc(C#N)c(N2CCCCC2)nc1-c1ccccc1	-0.0359
COC(=O)[C@H](C)NC(=O)Nc1cccc(C(F)(F)F)c1	0.715
O=C(CSc1nnc(SCC(=O)NCc2ccc3c(c2)OCO3)s1)NCc1ccc2c(c1)OCO2	-0.328
CC(C)C(=O)Nc1cccc(S(=O)(=O)c2cccc(NC(=O)C(C)C)c2)c1	0.202
CCN(CC)c1ccc(NC(=O)COC(=O)c2ccc3ccccc3n2)cc1	-0.0565
O=C(NCc1ccccc1)c1cc2nc(C3CC3)cc(C(F)(F)F)n2n1	-0.331
Cc1c(Cl)cccc1NC(=O)CCC(=O)NNC(=O)c1ccccc1	-0.148
CCCCN(CC)C(=O)Cc1c(C(=O)O)[nH]c2ccc(Cl)cc12	-0.455
O=C(O)c1ccccc1NS(=O)(=O)c1cccc2cccnc12	0.764
COc1cc(C(=O)OCCN2CCCCC2)ccc1O	0.0129
CCCCn1ccc(=O)c2c(C(F)(F)F)nccc21	-0.0278
O=S(=O)(c1ccc(F)cc1)N1CC2CCCN2c2ccc(C(F)(F)F)cc21 (stereo unspecified)	1.48
O=C(CCN1C(=O)C2C3C=CC(C4CC34)C2C1=O)Oc1cccc2cccnc12 (stereo unspecified)	-1.21
O=C(Nc1ccc(S(=O)(=O)N2CCCC2)cc1)c1cccnc1	0.393
O=C(CSc1nc2nc(-c3cccs3)cc(C(F)(F)F)c2c(=O)[nH]1)NCc1ccco1	0.734

SMILES	z-score
COc1ccc(C(=O)N2CCC(C(=O)O)CC2)cc1	-0.285
CC(C)(C)C1(C)OC(C(=O)NC2CCCCC2)C(C(=O)NC2CCCCC2)O1 (stereo unspecified)	-0.111
c1ccc(Cc2nnc3sc(-c4cccs4)nn23)cc1	-0.714
N#Cc1nc(-c2ccc(OCc3ccccc3)cc2)oc1N1CCC(C(N)=O)CC1	1.72
Cc1nc([N+](=O)[O-])c(N2CCN(C)CC2)n1Cc1ccccc1	0.0875
Clc1ccc(-c2cc3ccccc3nc2N2CCCC2)cc1	0.195
Cc1cccc(NC(=O)c2ccc(-n3cccn3)c([N+](=O)[O-])c2)c1	-0.236
CC(=O)c1cn(C)c(=O)n(C)c1=O	0.4
O=C(Nc1cccc(Cl)c1)O/N=C\c1ccncc1	0.302
O=C(NCCc1ccccc1)C1CCCN(C(=O)NC2CCCCC2)C1 (stereo unspecified)	-0.517
Cc1c(C(=O)O)sc(=S)n1-c1ccccc1	-0.78
CC12C=CC3(CN(Cc4ccccc4)C(=O)C3C1C(=O)NCc1ccco1)O2 (stereo unspecified)	0.605
O=c1c2c3c(sc2n(CCN2CCCCC2)c(=O)n1Cc1ccco1)CCCCC3	-0.542
O=C(Cc1ccccc1)N/N=C/c1ccc(Cl)cc1Cl	-0.358
CCOC(=O)c1ccc(-n2c(C)nc3c(cnn3-c3ccc(Cl)cc3)c2=O)cc1	-0.0713
Cc1nnc(SCc2ccc3c(c2)OCO3)s1	0.00689
Cc1ccc(-c2noc(/C=C/c3ccccc3)n2)cc1	-0.25
CC1=Nn2c(nnc2-c2ccccc2)SC1	0.393
COc1ccc(/C=C/c2cc(-c3ccc(C)cc3)o[n+]2C)cc1	-0.0315
Cc1ccc(-c2nc(SCC(=O)N(C)C3CCS(=O)(=O)C3)[nH]c2-c2ccc(C)cc2)cc1 (stereo unspecified)	0.385
CCOc1ccc2c(c1)OC(c1ccc(OC)cc1)(C(F)(F)F)NC2=O (stereo unspecified)	-0.269
Oc1ccc(Cl)cc1C1=NNC(c2ccc(Cl)cc2)C1 (stereo unspecified)	0.535
CCOc1ccc(S(=O)(=O)N(CC(N)=O)c2ccc(C)cc2)cc1	0.0453

SMILES	z-score
CC(=O)Nc1ccc(NC(=O)C(C)O/N=C/c2cccc([N+](=O)[O-])c2)cc1 (stereo unspecified)	-0.151
O=C(N1CCCCCC1)n1c(Cc2ccccc2)nc2ccccc21	-0.169
COc1cc(C(N)=O)ccc1OCc1ccccc1	0.79
Cc1occc1-c1nnc(SCC(=O)N2CCCc3ccccc32)n1Cc1ccco1	0.137
CCN(CC)S(=O)(=O)c1cccc(-c2nnc(SCC(=O)NC3CCCC3)n2N)c1	0.127
O=C(Nc1ccc2c(c1)OCO2)c1cc2ncc(Br)cn2n1	0.218
CC1(C)CC2CC(C)(CN2C(=O)COc2cccc3ccccc23)C1 (stereo unspecified)	0.21
N#Cc1nc(-c2cccc3ccccc23)oc1NCCN1CCOCC1	-0.831
O=C(NC(NC(=S)Nc1c(Cl)cc(Cl)cc1Cl)C(Cl)(Cl)Cl)OCc1ccccc1 (stereo unspecified)	-0.119
CCOC(=O)C1=C(C)N=C2SCCC(=O)N2C1c1ccc(C(=O)OC)cc1 (stereo unspecified)	0.053
O=C(NCCc1ccncc1)c1ccccc1F	-0.0962
Oc1ccccc1C1=Nc2nc3ccccc3n2C(c2ccccc2)C1 (stereo unspecified)	-1.59
CC(C)CC(NC(=O)C(CC(C)C)NC(=O)OC(C)(C)C)C(N)=O (stereo unspecified)	0.314
Cc1ccc(C(C(=O)NC2CCCCC2)N(CC2CCCO2)C(=O)CNC(=O)c2cccs2)cc1 (stereo unspecified)	-0.135
Cc1cc(/C=C2/SC(=O)NC2=O)c(C)n1-c1ccc(N2CCOCC2)cc1	-0.169
C=CCSc1nc2c(c(=N)n1CC=C)C1CCCC1S2 (stereo unspecified)	-0.276
Cc1cc(C)nc(NC(=O)C(C)C)n1	-0.00451
O=C(CC(=O)c1cc(Cl)ccc1O)c1ccccc1	active: 3.32
O=S(=O)(c1cccs1)N1CN(Cc2ccc(F)cc2)c2nc3ccccc3nc21	-0.376
